The campaign covered roughly 420,000 compounds. About 64,000 (15%) were called active. This list was built around the results that the source calls inconclusive (neither active nor inactive); the mix of calls is not that of the screen. The call rests on the fitted dose curve; in most records, active means well fitted inhibition curve with a large enough effect; inconclusive means small, poorly fitted or top-dose-only effect; inactive means flat fitted curve, though single readings scatter. No potency is given beside an inconclusive call; the fits are too rough.
test: qHTS for Inhibitors of human tyrosyl-DNA phosphodiesterase 1 (TDP1): qHTS in cells in absence of CPT; conditions: DT40 Tdp1-/- hTDP1 cells, no CPT, ATP luminescence, 48 h; activity change, negative = growth inhibition: at 46.2 µM (top of the series); further: nearly all actives have a fitted effect of over 55% in size
Method in brief: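 Growth of hTDP1-complemented DT40 Tdp1-knockout cells is measured by ATP luminescence after at least 48 hr compound exposure at 37 °C, with DMSO substituting for the 20 nM CPT used in the parallel screen.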
On the % scale 0 is the no-effect control and ±100 the full control effect; potency means the concentration at half of the fitted maximal effect; tags describe the fitted curve by direction and shape.

| Compound | Potency | activity change, negative = growth inhibition |
| --- | --- | --- |
| COc1cccc(-c2sc3ccc(OC)cc3c2-c2ccc(O)cc2)c1 | inconclusive [inhibitor, single point] | – |
| COc1ccc(-c2cc(C(F)(F)F)nc(SCC(=O)N3CCCCC3C)n2)cc1OC (stereo unspecified) | inconclusive [inhibitor, single point] | – |
| COc1ccccc1N1CCN(CC(O)COCc2cccs2)CC1 (stereo unspecified) | – | inactive: 8.63% |
| COC(=O)c1ccccc1Oc1cc(C(F)(F)F)nc(-c2ccccn2)n1 | inconclusive [inhibitor, partial curve] | – |
| NC(=O)C1CCN(c2oc(-c3ccccc3F)nc2S(=O)(=O)c2ccc(Cl)cc2)CC1 | – | inconclusive: -30.5% [inhibitor] |
| COc1cc2c(cc1OC)C(c1cccc([N+](=O)[O-])c1)=NCC2 | inconclusive [inhibitor, partial curve, poor fit] | – |
| CC(C)C[C@H]1CN([C@@H](Cc2ccccc2)CN2CCC[C@H]2CN2C(=O)C(=O)NC[C@@H]2Cc2ccc(O)cc2)C(=O)C(=O)N1CC1CCCCC1 | inconclusive [inhibitor, single point] | – |
| CN1C(=O)/C(=C/c2ccc(OCc3ccccc3F)cc2)NC1=S | – | inactive: -15.9% |
| COc1ccc(-c2nnn(CC(=O)NCc3cccs3)n2)cc1OC | inconclusive [inhibitor, partial curve] | – |
| CC(C(=O)O)n1cc(Cl)cn1 (stereo unspecified) | – | inactive: -3.16% |
| CCOc1cccc(C(=O)Nc2ccc3[nH]ncc3c2)c1 | – | inactive: -14.8% |
| CCC1CCCCN1CCCNC(=O)c1ccc(/C=C2/Sc3ccccc3NC2=O)cc1 (stereo unspecified) | active: 3.66 µM | – |
| Cc1ccc(S(=O)(=O)Nc2ccc(N3CCOCC3)cc2)cc1 | – | inactive: -3.31% |
| CCOc1ccc(CNC(=O)CCc2cn(Cc3ccccc3)c3ccccc23)cc1 | – | inconclusive: -36% [inhibitor] |
| O=C(NC1CCCCC1)c1cccc2c(-c3ccc(F)c(F)c3)coc12 | inconclusive [inhibitor, single point] | – |
| CCCN(C)C[C@H]1OCc2cnnn2CCCC(=O)N([C@H](C)CO)C[C@@H]1C | – | inactive: 14.6% |
| COc1cccc(CNC(=O)CCNS(=O)(=O)c2cccs2)c1 | – | inactive: -20.4% |
| Cc1ccc2oc(=O)c3cc(C(=O)Nc4ccccc4C(N)=O)sc3c2c1 | – | inactive: 2.44% |
| CC1CC(C)(C)CC2(C1)NC(=O)N(CC(=O)N1CCN(S(=O)(=O)c3cccc(Cl)c3Cl)CC1)C2=O (stereo unspecified) | inconclusive [inhibitor, single point] | – |
| Cc1onc(-c2c(F)cccc2Cl)c1C(=O)Nc1ccc(OC(C)C)cc1 | inconclusive [inhibitor, single point] | – |
| O=C(/C=C/c1ccc(OCc2c(F)cccc2Cl)cc1)N1CCOCC1 | inconclusive [inhibitor, single point] | – |
| O=c1[nH]nc(CNc2ccc(Cl)cc2Cl)c2ccccc12 | inconclusive [inhibitor, partial curve] | – |
| CCCN1CCN(C(=O)c2nn(-c3ccc(OC)cc3)c(=O)c3c2c2ccccc2n3C)CC1 | inconclusive [inhibitor, single point] | – |
| C=CCc1cccc(C=Nc2cc(Br)ccc2O)c1O | inconclusive [inhibitor, partial curve] | – |

| Compound | Potency | activity change, negative = growth inhibition |
| --- | --- | --- |
| Cc1ccc2oc(-c3cccc(NC(=O)COc4ccc(Cl)cc4C)c3C)nc2c1 | – | inactive: -19.2% |
| Cc1nc(COc2cccc(Cl)c2)sc1C(=O)/C=C/N(C)C | – | inactive: -10.1% |
| CCOC(=O)c1cnc2c(ccc3ccccc32)c1Nc1ccc(OCC)cc1 | – | inactive: -27.4% |
| COc1ccc(CN2CC(=O)N(c3ccc(Cl)cc3)C2=S)cc1OC | inconclusive [inhibitor, single point] | – |
| O=C1Nc2ccccc2Nc2ncccc21 | inconclusive [inhibitor, single point] | – |
| O=C1CCCc2cc(S(=O)(=O)NCC3CCC(C(=O)NCc4ccccc4Cl)CC3)ccc2N1 (stereo unspecified) | – | inactive: -29.8% |
| O=C(c1cccc(F)c1)N1CCC2(CCCN(c3ccc(-c4ccccc4)cc3)C2)CC1 | inconclusive [inhibitor, single point] | – |
| Cc1cccc(NC(=O)Nc2ccc(Br)cc2)n1 | inconclusive [inhibitor, single point] | – |
| COc1ccc(OC)c(-c2csc(NC(=O)COC(=O)c3ccc(NC(=O)CC#N)cc3)n2)c1 | inconclusive [inhibitor, partial curve] | – |
| N#Cc1c(NC(=S)NC(=O)c2ccccc2)sc2c1CCCCC2 | inconclusive [inhibitor, single point] | – |
| CS(=O)c1ccc(-n2c(=O)n(Cc3ccccc3)c(=O)c3[nH]cnc32)cc1 (stereo unspecified) | – | inactive: 4% |
| CC(=O)Oc1ccc(-c2csc(Nc3ccc(Cl)cn3)n2)cc1 | inconclusive [inhibitor, single point] | – |
| C=CCNC(=O)c1onc(CSc2cccc(OC)c2)c1C(=O)NCC=C | – | inactive: -27.7% |
| CCOc1ccc(N(C(=O)c2snc(C(N)=O)c2N)C(C(=O)NC2CCCC2)c2ccncc2)cc1 (stereo unspecified) | – | inactive: -15.6% |
| Cc1cccc(-c2nc(CS(=O)CC(=O)NC(C)CCc3ccccc3)c(C)o2)c1 (stereo unspecified) | inconclusive [inhibitor, single point] | – |
| Cc1ccc(C)c(-c2nnc(NC(=O)c3ccc4c(c3)OCCO4)o2)c1 | active: 8.2 µM | – |
| CC(=O)Nc1ccc(Nc2nc3c(S(=O)(=O)c4cccc(Cl)c4)nnn3c3ccsc23)cc1 | – | inactive: -14.8% |
| COc1ccc(-c2nn(-c3ccccc3)cc2C(=O)Nc2cccc(S(=O)(=O)NC3=NCCC3)c2)cc1 | inconclusive [inhibitor, single point] | – |
| O=C1/C(=C/c2cccc3ccccc23)CCCc2ccccc21 | – | inactive: -26.2% |
| CCCOC(=O)c1c(NC(=O)CSc2nc(-c3ccco3)cc(C(F)(F)F)n2)sc(C(=O)OC)c1C | – | inconclusive: -30.8% [inhibitor] |
| CC(C)(C)NC(=O)Cn1nnc(-c2ccc(OCc3c(F)cccc3Cl)cc2)n1 | inconclusive [inhibitor, single point] | – |
| Cc1nc2sc(-c3ccccc3)cc2c(=O)n1-n1cccc1 | inconclusive [inhibitor, single point] | – |
| CC(=O)Nc1ccc(S(=O)(=O)Nc2cccn(Cc3ccc(C)cc3)c2=O)cc1 | inconclusive [inhibitor, partial curve, poor fit] | – |
| CCN(CC)Cc1c(NC(=O)c2ccc(OC)cc2)sc2c1CCCC2 | inconclusive [inhibitor, single point] | – |

| Compound | Potency | activity change, negative = growth inhibition |
| --- | --- | --- |
| CCCC(=O)N1CCCC(c2nc(-c3cccs3)no2)C1 (stereo unspecified) | active: 25.9 µM | – |
| CCn1c(N2CCN(S(=O)(=O)c3ccc(Cl)cc3)CC2)nc2ccccc21 | active: 14.6 µM | – |
| Cn1c(NC(=O)c2ccc(F)cc2)c(-c2cccs2)c(=O)c2ccccc21 | inconclusive [inhibitor, partial curve] | – |
| CC(C)(C)C(=O)NC(=S)Nc1sc2c(c1C#N)CCCCC2 | active: 23.1 µM | – |
| Cc1ccc(NC(=O)CN2C(=O)CCc3cc(S(=O)(=O)N4CCCCC4)ccc32)cc1C | active: 20.6 µM | – |
| O=C(CCC(=O)N(CC(=O)NC1CCCCC1)Cc1cccs1)Nc1ccccn1 | – | inactive: -0.708% |
| CCOc1ccc(CCNC(=O)c2cccc3c2C(=O)N(CCOC)C3)cc1OCC | inconclusive [inhibitor, partial curve] | – |
| Cc1ccccc1S(=O)(=O)c1cc2ccccc2nc1N | – | inconclusive: -32.9% [inhibitor] |
| Nc1c2c(nn1-c1ccc(C(=O)O)cc1)CNC2 | – | inactive: -16.5% |
| COc1ccc(S(=O)(=O)N2CCN(CC(=O)Nc3c(C)n[nH]c3C)CC2)cc1OC | – | inactive: 1.65% |
| COc1cccc(C(=O)Nc2ccc(-n3nncc3-c3ccccc3)cc2)c1 | inconclusive [inhibitor, single point] | – |
| CSc1ccc(NC(=O)N2CCC(C(=O)c3ccc(F)cc3)CC2)cc1 | inconclusive [inhibitor, single point] | – |
| Cc1cc(C)cc(-n2c(C)nc3cc(C(=O)NCc4ccccc4Cl)ccc32)c1 | inconclusive [inhibitor, single point] | – |
| CNC(=O)c1nn(C)c(=O)[nH]c1=O | – | inactive: 3.26% |
| COc1ccc(CCNC(=O)c2cnc3sc(N4CCCCC4)nn3c2=O)cc1OC | inconclusive [inhibitor, single point] | – |
| CN1c2ccccc2C(O)=C(C(=S)Nc2ccc(Cl)cc2)S1(=O)=O | active: 20.6 µM | – |
| O=C(c1ccc(Br)c([N+](=O)[O-])c1)N1CCN(Cc2ccccc2)CC1 | inconclusive [inhibitor, single point] | – |
| CC1CCCC(C)N1c1ccc(S(=O)(=O)N2CCOCC2)cc1Cl (stereo unspecified) | inconclusive [inhibitor, single point] | – |
| COc1ccc2oc(=O)c(C(=O)NC(C)c3ccccc3)cc2c1 (stereo unspecified) | inconclusive [inhibitor, partial curve, poor fit] | – |
| CCN(C(=O)CCN1C(=O)S/C(=C\c2ccccc2)C1=O)C1CCS(=O)(=O)C1 (stereo unspecified) | inconclusive [inhibitor, single point] | – |
| C=CCOc1cccc(CNc2cccc(C(=O)O)c2)c1 | – | inactive: -15.1% |
| CCOc1ncccc1C(=O)NNC(=O)CSc1ccc(Cl)cc1 | inconclusive [inhibitor, single point] | – |
| COc1ccc(-c2cc(C(=O)Nc3sc4c(c3C#N)CCCC4)c3ccccc3n2)cc1 | – | inconclusive: -31.6% [inhibitor] |

From PubChem BioAssay AID686978 (National Center for Advancing Translational Sciences (NCATS), 2013)
